Test results taken from US8222297B2, “Aniline or phenol mustards linked to DNA-affinic molecules or water-soluble aromatic rings and their use as cancer therapeutic agents” (Academia Sinica, priority 2007, dated 2012).
Where two headings read alike, the source gives them in different places.

Tested on: CCRF-CEM/VBL
Conditions: for fold of cross-resistant, CCRF-CEM/VBL vs IC50 of parent cell line: number in brackets
[1] = read-out: IC50 CCRF-CEM/VBL, XTT assay, 72-hr incubation
[2] = Homo sapiens, CCRF-CEM, 72 h, read-out: IC50 CCRF-CEM/VBL, XTT assay, 72-hr incubation

Compound	fold of cross-resistant, CCRF-CEM/VBL vs IC50 of parent cell line [x]	IC50 [1] [nM]	IC50 [2] [nM]
1-{4-[Bis-(2-chloroethyl)amino]phenyl-3-[6-methoxy-2-(4-methoxyphenyl)quinolin-4-yl]urea [BO-1049]	1.5	551	
O=C(Nc1ccc(N(CCCl)CCCl)cc1)Nc1c2ccccc2nc2ccccc12 [BO-1034, 1-Acridin-9-yl-3{4-[bis(2-chloroethyl)amino]phenyl}urea]	2.0		
Cc1cc(NC(=O)Nc2ccc(N(CCCl)CCCl)cc2)c2ccccc2n1 [BO-1038, 1-{4-[Bis(2-chloroethyl)amino]phenyl}-3-(2-methyl-quinolin-4-yl)urea]	3.4		
Cc1cccc2c(Nc3cc(CO)cc(NC(=O)Nc4ccc(N(CCCl)CCCl)cc4)c3)c3ccccc3nc12 [BO-1050, 1-{4-[bis(2-chloroethyl)amino]phenyl}-3-[3-hydroxymethyl-5-(4-methylacridin-9-ylamino)phenyl]urea]	4.4		1320
Cc1ccc(NC(=O)Nc2ccc(N(CCCl)CCCl)cc2)cc1Nc1c2cccc(C)c2nc2c(C(=O)NCCN(C)C)cccc12 [BO-1053, 9-[5-(3-{4-[Bis(2-chloroethyl)amino]phenyl}ureido)-2-methylphenylamino]-5-methylacridine-4-carboxylic acid (2-dimethylaminoethyl)amide]	25.3		
CN(C)CCNC(=O)c1cccc(NC(=O)Nc2ccc(N(CCCl)CCCl)cc2)c1.Cl [BO-1055, 3-(3-{4-[Bis(2-chloroethyl)amino]phenyl}ureido)-N-(2-dimethylaminoethyl)benzamide hydrochloride]	6.2	791	
O=C(Nc1cc(CO)cc(Nc2c3ccccc3nc3ccccc23)c1)Oc1ccc(N(CCCl)CCCl)cc1 [BO-1062, [3-(Acridin-9-ylamino)-5-hydroxymethylphenyl]carbamic acid 4-[bis(2-chloro-ethyl)amino]phenyl ester]	3.4		194
Cc1cccc2c(Nc3cc(CO)cc(NC(=O)Oc4ccc(N(CCCl)CCCl)cc4)c3)c3ccccc3nc12 [BO-1063, [3-Hydroxymethyl-5-(4-methylacridin-9-ylamino)phenyl]carbamic acid 4-[bis(2-chloroethyl)amino]phenyl ester]	1.8		
Cc1ccc(Nc2c3ccccc3nc3c(C)cccc23)cc1NC(=O)Oc1ccc(N(CCCl)CCCl)cc1 [BO-1064, [2-Methyl-5-(4-methylacridin-9-ylamino)phenyl]carbamic acid 4-[bis(2-chloro-ethyl)amino]phenyl ester]	1.3		146
COc1cc(NC(=O)Oc2ccc(N(CCCl)CCCl)cc2)cc(Nc2c3ccccc3nc3ccccc23)c1 [BO-1066, [3-(Acridin-9-ylamino)-5-methoxyphenyl]carbamic acid 4-[bis(2-chloroethyl)-amino]phenyl ester]	0.52		
CC(=O)O[C@H]1C(=O)[C@@]2(C)[C@H]([C@H](OC(=O)c3ccccc3)[C@]3(O)C[C@H](OC(=O)[C@H](O)[C@@H](NC(=O)c4ccccc4)c4ccccc4)C(C)=C1C3(C)C)[C@]1(OC(C)=O)CO[C@@H]1C[C@@H]2O [Taxol, reference compound]	980		
